Results taken from PubChem BioAssay AID504845 (National Center for Advancing Translational Sciences (NCATS), 2011).
Screen size: about 390,000 compounds; about 150 (0.038%) were called active. Inconclusive means that the source gave no clear call. Such entries were picked first, then a sample of the others. Calls follow the shape of the dose curve; as a rule, active = well fitted inhibition curve with a large enough effect; inconclusive = small, poorly fitted or top-dose-only effect; inactive = no such curve, though single readings can be large or run the other way. Potencies beside an inconclusive call are fits to weak or partial responses and may not hold up.
% is scaled to controls: 0 for no effect and ±100 for the full control effect; potency is read from the fitted curve at half-maximal effect; tags tell the direction and shape of the fitted curve.
Also: nearly all actives have a fitted effect of over 75% in size.

These compounds were tested against Regulator of G-protein signaling 4 (Homo sapiens) (UniProt P49798) (assay: Inhibitors of Regulator of G Protein Signaling (RGS) 4: qHTS). Details: Transcreener GDP fluorescence polarization, RGS4-accelerated GTP hydrolysis; series mostly up to 114 µM; activity change, negative = inhibition: at the top concentration.
Chain of UniProt P49798 (P49798 whole entry, looked up): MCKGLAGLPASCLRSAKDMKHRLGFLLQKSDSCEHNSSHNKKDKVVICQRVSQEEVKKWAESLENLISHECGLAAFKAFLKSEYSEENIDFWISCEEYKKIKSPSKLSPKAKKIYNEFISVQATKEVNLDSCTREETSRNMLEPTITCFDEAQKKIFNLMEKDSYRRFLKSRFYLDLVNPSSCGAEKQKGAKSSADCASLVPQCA
In short: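 MLSMR compounds (23 nl, pin-transferred) preincubated 10 min at room temperature with a 500nM (2x) first reagent, then RGS4 at 900nM (2x) plus Transcreener GDP mix added; fluorescence polarization (620/688 nm) read before and after 90 min at 30 °C.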
For `C=CCn1c(-c2ccccc2)c[nH]c1=S`, the Potency was inconclusive: 79.4 µM [inhibitor, single point].
With `O=C(NCc1ccco1)/C(=C/c1ccc(C(F)(F)F)cc1)c1nc2ccccc2[nH]1` the activity change, negative = inhibition was inactive: -0.957% [at 11.4 µM].
For `CCOC(=O)CCCc1sc(N)nc1-c1[nH]c(=O)[nH]c1C`, the Potency was inconclusive: 17.8 µM [inhibitor, full curve, poor fit].
`CC1=C(C)CS(=O)N(S(=O)(=O)c2ccc(Cl)cc2)C1` (configuration not stated) was tested, and the Potency was inconclusive: 10 µM [inhibitor, full curve, poor fit].
`COc1ccccc1CNC(=O)c1cc(C(=O)CC(C)C)c[nH]1` was tested, and the “activity change, negative = inhibition” value was inactive: 0.895%.
In the case of `COc1ccc(CC(=O)Nc2ccc(-c3cn4ccc(C)cc4n3)cc2)cc1`, the Potency is reported as inconclusive: 89.1 µM [inhibitor, partial curve, poor fit].
With `Cc1cc(C)cc(SCc2noc(C(=O)NCc3ccccc3)c2C(=O)NCc2ccccc2)c1` the “activity change, negative = inhibition” value was inactive: 24.9%.
For `CCCCOc1ccc(-c2c(C(=O)Nc3ccccc3)c(C)[nH]c(=S)c2C#N)cc1`, the Potency was inconclusive: 79.4 µM [inhibitor, partial curve, poor fit].
In the case of `O=C(N/N=C/c1c(O)ccc2ccccc12)c1ccc(Br)o1`, the Potency is reported as inconclusive: 50.1 µM [inhibitor, partial curve, poor fit].
For `COc1ccc(Nc2ncnc3ccccc23)c(OC)c1`, the Potency was inconclusive: 79.4 µM [inhibitor, single point].
In the case of `CSc1nc(=NC(C)=O)ss1`, the Potency is reported as inconclusive: 89.1 µM [inhibitor, partial curve, poor fit].
With `CCCCn1c(-c2ccco2)n[nH]c1=S` the Potency was inconclusive: 70.8 µM [inhibitor, single point].
`Cn1nnc(NC(=S)NC(=O)c2ccc(-c3ccc(Br)cc3)o2)n1` was tested, and the Potency was inconclusive: 31.6 µM [inhibitor, partial curve, poor fit].
`O=C(NNc1ccc(O)cc1)c1ccc(Br)cc1` was tested, and the Potency was inconclusive: 50.1 µM [inhibitor, partial curve, poor fit].
For `CC[n+]1c(/C=C/Nc2ccccc2)sc2ccccc21`, the Potency was inconclusive: 79.4 µM [inhibitor, partial curve, poor fit].
In the case of `CCOC(=O)c1c(NC(=O)CSc2nnc(C)s2)sc2c1CCN(C)C2`, the Potency is reported as inconclusive: 50.1 µM [inhibitor, partial curve, poor fit].
For `COc1ccccc1C(=O)Nc1ccnn1C1CCN(Cc2cc(C)c(C)cc2C)CC1`, the “activity change, negative = inhibition” value was inactive: -9.75%.
With `Cn1c(COc2ccccc2O)[n+](C)c2ccccc21` the “activity change, negative = inhibition” value was inactive: 18.4%.
For `COc1ccc(/C=C2/SC(=S)N(CC(=O)O)C2=O)cc1OCc1ccc(Cl)cc1`, the Potency was inconclusive: 31.6 µM [inhibitor, full curve, poor fit].
For `COP1(=O)CC(O)C(O)C(COCc2ccccc2)O1` (configuration not stated), the “activity change, negative = inhibition” value was inactive: 12.8%.
For `COCCn1c(SCC(=O)c2cc(C)n(C)c2C)nc2ccccc2c1=O`, the Potency was inconclusive: 79.4 µM [inhibitor, single point].
In the case of `COc1ccc(C(=O)NNC(=O)c2snnc2C)cc1`, the “activity change, negative = inhibition” value is reported as inactive: 1.74%.
In the case of `N#CC(C#N)=C1NC2(CCCCC2)Cc2ccccc21`, the “activity change, negative = inhibition” value is reported as inactive: -32.9%.
With `NS(=O)(=O)c1ccc(N2CCCC2=O)c([N+](=O)[O-])c1` the Potency was inconclusive: 56.2 µM [inhibitor, partial curve, poor fit].
`Nc1nc(NCCc2ccc(O)cc2)nc2nc(-c3ccco3)nn12` was tested, and the Potency was inconclusive: 1.34 µM [inhibitor, full curve, poor fit].
In the case of `C/C=C\C=C/C(=O)Nc1cccc(C2=NOC3(C2)C[C@@H](C(N)=O)N(C(=O)C2(C)CC2)C3)c1` (some centres not stated), the Potency is reported as inconclusive: 28.2 µM [inhibitor, full curve, poor fit].
In the case of `CCOC(=O)C1=C(C)N(c2ccccc2)C(=O)NC1c1cccc([N+](=O)[O-])c1` (configuration not stated), the “activity change, negative = inhibition” value is reported as inactive: -31%.
For `COc1cc(/C=N/n2cnnc2)ccc1OCc1ccccc1`, the “activity change, negative = inhibition” value was inactive: 34.6%.
For `CCOc1ccc(NC(=O)CCS(=O)(=O)c2ccc(Br)cc2)cc1`, the Potency was inconclusive: 79.4 µM [inhibitor, partial curve, poor fit].
`C=CCN1CCc2c(cc(O)c(O)c2Br)[C@@H](c2ccccc2)C1` was tested, and the Potency was inconclusive: 21.2 µM [inhibitor, partial curve].
`NS(=O)(=O)c1ccc2c(c1)C1C=CCC1C(C1CC=CCC1)N2` (configuration not stated) was tested, and the Potency was inconclusive: 56.2 µM [inhibitor, partial curve, poor fit].
In the case of `Cc1ccc(OCC(=O)NCc2ccc3c(c2)OCO3)c([N+](=O)[O-])n1`, the Potency is reported as inconclusive: 56.2 µM [inhibitor, partial curve, poor fit].
`CCOC(=O)CNS(=O)(=O)c1ccc2c3c(cccc13)C(=O)N2CC` was tested, and the “activity change, negative = inhibition” value was inactive: 15%.
For `CCCn1c2ccccc2c2cnn(CC(=O)NC(CCSC)C(=O)OC)c(=O)c21` (configuration not stated), the Potency was inconclusive: 89.1 µM [inhibitor, single point].
For `Cc1cc2ccccc2nc1SCC(=O)NC1CCCC1`, the Potency was inconclusive: 39.8 µM [inhibitor, full curve, poor fit].
With `Cc1cc(-c2csc(N)n2)c(C)n1CCc1ccccc1` the Potency was inconclusive: 44.7 µM [inhibitor, partial curve, poor fit].
For `O=C1O/C(=C\C(=O)N2CCOCC2)c2ccccc21`, the Potency was inconclusive: 89.1 µM [inhibitor, single point].
In the case of `COc1ccc(OC)c(CCNC(=O)c2ccc3c(c2)N(Cc2ccc(F)cc2)CCS3)c1`, the “activity change, negative = inhibition” value is reported as inactive: -6.75%.
`C=C(C)C(=O)N1CC2(CC(c3cccc(NC(=O)/C=C\C=C/C)c3)=NO2)C[C@H]1C(N)=O` (some centres not stated) was tested, and the Potency was inconclusive: 44.7 µM [inhibitor, partial curve, poor fit].
In the case of `C(=C\c1ccccn1)/c1ccccn1`, the Potency is reported as inconclusive: 79.4 µM [inhibitor, partial curve, poor fit].
`Cc1cc(=O)oc2cc(NC(=S)NNC(=O)c3c(Cl)cnn3C)ccc12` was tested, and the Potency was inconclusive: 70.8 µM [inhibitor, partial curve, poor fit].
With `COc1ccc(C(=O)Oc2ccc(C(c3c(C)[nH][nH]c3=O)c3c(C)[nH][nH]c3=O)cc2OC)cc1` the Potency was inconclusive: 56.2 µM [inhibitor, partial curve, poor fit].
